Laboratory results published in the supplement of paper PMC3334620.
Over roughly 33,000 sequences, “E-score (-0.5 to 0.5)” has its median near -0.016; the highest 2% begin near 0.31. The list shows a part of the results.

biological target: Cst6 (UniProt P40535); experiment: PBM E-score (8-mer binding enrichment) (E-score (-0.5 to 0.5)); higher = stronger / more preferred TF binding; most listed sequences are background and not binding sites; conditions: protein concentration: 200 nM; construct: GST-DNA-binding domain
Description: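 Universal 'all 10-mer' protein binding microarrays (Agilent AMADID 015681) probed with GST-tagged S. cerevisiae TFs (full-length or DBD) made by in vitro transcription/translation (PURExpress), about 100-200 nM. Bound TF was detected with fluorescent anti-GST. Each ungapped 8-mer (which stands for itself and its reverse complement) is scored by the PBM enrichment score (E-score), a modified Wilcoxon-Mann-Whitney statistic from -0.5 to +0.5, computed with the Universal PBM Analysis Suite. Scale: above 0.35 generally sequence-specific binding.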

Sequence	PBM E-score
CACACGTC	0.293
AAGTCACT	0.141
AACGGAGC	-0.164
GGCTGCCA	-0.204
CCCCGTAC	-0.254
GGTGGTAC	-0.311
TATTTCGA	0.239
AACCAACG	-0.161
ACCCATGC	0.0693
TCATCAGA	0.135
AGACACCG	-0.0399
CTCTACCC	-0.13
ACGGGGCC	0.00152
CTTTAAGC	0.0326
CTCGATCC	-0.195
AATACTAG	0.121
CGACCAAC	-0.0308
AAGATCTC	0.0487
GGGAACAC	-0.184
GATGGAGA	0.00147
CCTCCCTA	-0.368
CTCAGCTC	-0.214
ATGACAGC	0.253
GAGGAAGC	-0.256
ACCGCTTA	-0.0456

Sequence	PBM E-score
CTCCTAAA	-0.14
CAATATTA	0.215
TAGGAAAA	0.0141
GCGGCAAA	0.149
AATCCCCC	-0.247
ATGTAATC	0.299
AATCGCTG	-0.196
CGAATGTA	-0.051
CAGCAAGA	0.0186
CGCCATTA	0.0415
CTGCAAAC	-0.0743
AATGAAGC	0.0218
CCCTGTCC	-0.337
GACTTGAC	-0.0223
CCGTCTTA	0.0275
ATTGTTCC	0.0298
AGGCGGAG	-0.247
AGTCGGCA	-0.0646
GCGCAGCC	-0.38
AGAGATTG	0.166
AGAGCTGA	0.00422
AAGCTCGG	-0.13
GACCATTA	0.0582
ACTTACAC	0.0708
AGCGCCTG	-0.227

Sequence	PBM E-score
CAATGTCG	0.179
AATGAGTC	-0.0722
CTTAGCGA	-0.0368
GCGTTGCC	0.0103
ATGCTTAG	0.168
AAGAAGCT	0.147
TACCGAAA	-0.00477
TACACAGA	0.0443
CCTTACAC	-0.088
AACAAGCG	0.0764
CGCGTGAA	0.126
ATGGTCAG	0.102
GAACTGGA	0.0771
TATGAAAA	0.225
AGGATTAA	0.00584
GATAGGCA	0.104
CAAACTCC	0.0554
TGAGCTAA	0.187
AGAGACAA	-0.108
AACATGGT	-0.0339
GGAGCTAA	-0.12
CGAGCCGC	0.276
ATCCTAAC	0.0564
AGGTAAGG	-0.132
AGACTACT	-0.0215

Sequence	PBM E-score
ACAAATGA	0.224
GGACGCCA	-0.139
GCCGACCA	-0.302
CATAGGGG	-0.183
AGCCAGAC	-0.101
GGCCTAGA	-0.24
AGGTAGTC	-0.212
ACTCTGAC	0.0578
CGTAAAAC	-0.0276
CGACATTA	0.213
GTAGCCTA	-0.102
GTAGCGAC	-0.304
GCATTGAA	0.103
GTGAAACA	0.181
CCCCCAGG	-0.355
ATGATTTC	0.249
ATCCTGGA	-0.0468
GGTCCATA	-0.34
AAGTAAGA	0.0906
AAGGCACG	0.286
AAATGTCC	-0.233
AAATTCCC	-0.0866
AATGGCGT	0.191
GCGCTACA	0.0789
GGGGGATA	-0.388

Sequence	PBM E-score
CATCTTTC	0.0966
ACACCCAT	-0.041
GCTAACGA	0.174
AACTTACA	0.0468
CATAAATG	0.0924
ACTCATCG	-0.0112
GACAGGAC	-0.132
CGTGTCCC	-0.119
GGCCAGGA	-0.311
AAAATGTG	0.0753
CCGTGATA	0.0349
GAGTGGAC	-0.107
GCGATGAC	0.413
AATCCACA	0.112
CCGTCAAC	0.0147
AGGTTGGG	-0.046
CACCCCAG	-0.0965
TCACCCCA	0.17
AATATCCA	0.0798
AGTATGAC	0.354
GTCGTGTA	0.0765
AACCCACG	0.00976
ATATAGAT	0.225
GTTAATGA	0.183
CGACAGCC	-0.12

Sequence	PBM E-score
AAGACATC	-0.134
CACGCAGG	0.0573
TAGCGTCA	0.399
CAGCCCCG	-0.203
CCATAGCC	-0.163
CCGGCCGA	-0.161
CACTCTTC	-0.0467
ATCGGCAT	0.23
CAGTTGCA	0.0715
CATGTTAC	0.161
GTAGCAAA	0.0341
ATAGCTGA	-0.204
GATTTCCA	-0.0575
AAACCAGG	-0.112
ACCCTCAC	-0.204
GGAAGATA	0.0939
CGCACCTC	-0.215
AAGCTAGA	-0.136
GACCCGCA	-0.15
CCTACTCC	-0.034
GCGCTCCA	-0.238
ACGTACTA	0.13
CGATTCTC	-0.0587
GAGGGGAA	0.00588
AGACCCCT	-0.31

Sequence	PBM E-score
ATCAATGA	0.35
GGCCCACC	-0.228
CGGACGAA	0.149
ACGGGCCC	-0.245
GGACTTGA	-0.336
ATTCTTGG	0.172
ATTAAACC	0.0848
ACCTCCTC	-0.0948
CGCATCGC	-0.137
GAATCTCC	-0.123
CCCTTCTC	-0.337
CTTGTGTA	0.0593
CCGAAAGA	0.0328
CACCGGTG	-0.0383
ATTGATGG	0.142
CGACGGAG	-0.184
CCTACGAA	0.00469
GAAGGTCA	-0.0976
CCGTTCAC	-0.191
ATCGTCGC	-0.0136
CAGCGCGG	0.05
ATCCTCCG	-0.29
